Source: PubChem BioAssay AID504466 (National Center for Advancing Translational Sciences (NCATS), 2011)
Hit rate of the full screen: of about 330,000 compounds, about 4,200 (1.3%) were called active. The inconclusive results got no clear call from the source; some entries with a clear call stand among them for comparison. Calls come from the whole dose curve; as a rule, active = well fitted activation curve with a large enough effect; inconclusive = small, poorly fitted or top-dose-only effect; inactive = no such curve, though single readings can be large or run the other way. Where the call is inconclusive, the potency comes from a doubtful curve fit.

Test: qHTS screen for small molecules that induce genotoxicity in human embryonic kidney (HEK293T) cells expressing luciferase-tagged ELG1; note: nearly all actives have a fitted effect of over 60% in size; for activity change, positive = activation: % of control where 0% means no effect
Conditions: HEK293T ELG1-luciferase reporter, luminescence, 16 h; series mostly up to 46 µM; activity change, positive = activation: at the top concentration
In short: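 Luminescence read-out: rising ELG1-luciferase signal, reflecting elevated ELG1 protein under genetic stress, flags genotoxic compounds. Cells were treated for 16 hr at 37 °C before ONE-Glo detection.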
Potency is the fitted concentration of half-maximal effect; tags give direction and shape of the fitted curve.

SMILES	Potency	activity change, positive = activation
COCCn1c(C)cc(C(=O)COC(=O)c2ccc(Br)o2)c1C	active: 4.11 µM	–
O=c1c2ccccc2nc2n1C(CSCc1ccccc1)CS2 (centres undefined)	inconclusive: 16.4 µM [activator, partial curve, poor fit]	–
CC(C)c1ccc(C(O)c2cnc(C(C)C)n2C)cc1 (centres undefined)	inconclusive: 18.4 µM [activator, single point]	–
CCOc1ccc(-n2c(Cc3cc(=O)[nH]c(=O)[nH]3)nnc2SCC(=O)OC)cc1	–	inactive: -0.872%
CCOC(=O)c1c(C)[nH]c(C(=O)COC(=O)C2CC2C)c1C (centres undefined)	active: 2.59 µM	–
NC(=O)CSc1nc(C23CC4CC(CC(C4)C2)C3)nc2ccccc12	inconclusive: 32.6 µM [activator, partial curve, poor fit]	–
Cc1ccc(N/C=C2\CCCCC2=O)nc1	inconclusive: 20.6 µM [activator, partial curve, poor fit]	–
NC(=O)c1cc(S(=O)(=O)NCc2cccs2)cs1	–	inactive: 2.5% [at 9.26 µM]
Cc1ccc2c(CN(C)Cc3cccc(Cl)c3)cc(=O)oc2c1C	–	inactive: 8.34%
O=C(Nc1cccc([N+](=O)[O-])c1)c1cc2ccccc2cc1O	–	inactive: 15.2%
O=C(CS(=O)CC(=O)N(CC(=O)NC1CCCC1)c1ccccc1F)Nc1ccc(F)cc1 (centres undefined)	–	inactive: 0.663%
COc1ccc(-c2cc3nc(-c4ccccc4)cc(N4CCC(O)CC4)n3n2)cc1	–	inactive: -10.8%
Cc1cc(C)cc(N(C(=O)Cn2nnc3ccccc32)C(C(=O)NCc2ccco2)c2ccncc2)c1 (centres undefined)	inconclusive: 23.1 µM [activator, partial curve, poor fit]	–
O=c1c(Br)c(N2CCCCC2)cnn1-c1ccccc1	inconclusive: 3.66 µM [activator, single point]	–
Cc1ccccc1/C=N/NC(=O)CSc1nc2ccccc2o1	inconclusive: 18.4 µM [activator, partial curve, poor fit]	–
O=C(N/N=C/c1ccccc1C(F)(F)F)c1ccc(O)cc1	inconclusive: 16.4 µM [activator, partial curve]	–
COc1ccc(C(=O)Nc2ccc3cn[nH]c3c2)c(OC)c1	inconclusive: 13 µM [activator, partial curve]	–
Clc1ccc(CSc2ncccn2)cc1	inconclusive: 20.6 µM [activator, partial curve]	–
COc1ccc(OC)c(C(=O)CSc2nccc(-c3ccc(Br)cc3)n2)c1	–	inactive: -2.86%
O=C(Nc1ccc(N2CCCCC2)cc1)c1ccc2ccccc2n1	inconclusive: 16.4 µM [activator, partial curve, poor fit]	–
C/C(=N\NC(=O)c1ccc(Br)cc1)c1cccnc1	inconclusive: 5.17 µM [activator, partial curve, poor fit]	–
CCn1nccc1C(=O)Nc1ccc(C)c(C)c1	inconclusive: 20.6 µM [activator, single point]	–
O=C(c1cc([N+](=O)[O-])[nH]n1)N1CCSCC1	–	inactive: 1.59%
O=C(Nc1ccc([N+](=O)[O-])cc1)N1CCc2ccccc2C1	inconclusive: 20.6 µM [activator, partial curve, poor fit]	–
COc1ccc(NC(=O)CC2SC(=N)N(c3ccccc3)C2=O)c(OC)c1 (centres undefined)	–	inactive: -1%

SMILES	Potency	activity change, positive = activation
Cn1cc(S(=O)(=O)NC2CCCCC2)c(=O)n(C)c1=O	–	inactive: -3.52%
COc1ccccc1-n1c(C)nc2cc(C(=O)O)ccc21	–	inactive: 3.33%
COC(=O)c1c(-c2ccc(OC)cc2)sc2cc3c(cc12)OCO3	inconclusive: 8.2 µM [activator, partial curve, poor fit]	–
O=C(/C(=C\c1ccccc1)c1nc2ccccc2[nH]1)c1ccc(Cl)cc1	inconclusive: 4.11 µM [activator, partial curve, poor fit]	–
CC(C)(C)c1ccc(-c2nnc(N)o2)cc1	inconclusive: 16.4 µM [activator, partial curve]	–
CC(=O)N1CCN(c2ccc(NC(=O)c3cccc(Cl)c3)cc2)CC1	inconclusive: 8.2 µM [activator, partial curve, poor fit]	–
O=C(/C=C/c1ccco1)Nc1cccc2cccnc12	inconclusive: 18.4 µM [activator, partial curve, poor fit]	–
Cc1ccc(NC(=O)c2cccc(S(=O)(=O)N3CCN(c4ccccc4)CC3)c2)nc1	active: 14.6 µM	–
C/C(=N\NC(=O)c1nc2ccccn2c1C)c1ccco1	inconclusive: 14.6 µM [activator, partial curve]	–
O=C(NC1CCCC1)c1cc(-c2ccc(F)cc2)on1	active: 4.61 µM	–
C/C(=N\NC(=O)c1cccc(S(=O)(=O)N2CCOCC2)c1)c1ccc(OCC(=O)N(C)C)cc1	–	inactive: 1.05%
C/C(=N\NC(=O)c1ccoc1C)c1ccccc1	inconclusive: 13 µM [activator, partial curve]	–
CC1CCCC(C)N1C(=O)CSc1nnc(-c2cccs2)o1 (centres undefined)	inconclusive: 3.26 µM [activator, partial curve]	–
CCOc1ccc(OC(=O)c2ccc3c(=O)n4c(nc3c2)CCC4)cc1	–	inactive: -3.64%
COc1ccc(C2C(C(=O)c3ccco3)=C(O)C(=O)N2CC2CCCO2)cc1 (centres undefined)	–	inactive: -10.8%
Cc1ccccc1C(=O)Nc1nnc(-c2ccco2)s1	active: 1.46 µM	–
CSc1ccccc1NC(=O)c1noc2c1CCC2	active: 14.6 µM	–
COc1ccc(-c2nc3c4ccccc4ccn3c2CN2CCOCC2)cc1OC	inconclusive: 20.6 µM [activator, partial curve]	–
Cc1ccc(-c2nn(C)c(=O)c3ccccc23)cc1S(=O)(=O)N1CCCC1	active: 16.4 µM	–
CCC(COC(C)=O)Nc1nc2c([nH]1)c(=O)n(C)c(=O)n2C (centres undefined)	–	inactive: -0.123%
Cc1cccc(NC(=O)c2ccccc2OCC(=O)N2CCCC2)c1C	–	inactive: 4.44%
O=C(CNC(=O)c1cccs1)N/N=C/c1ccccc1[N+](=O)[O-]	inconclusive: 18.3 µM [activator, partial curve, poor fit]	–
CCOc1ccc(/C=N/NC(=O)c2ccc(Cn3cc(Br)cn3)o2)cc1	–	inactive: 16.6%
CCOC(=O)C1(Cc2cccc(OC)c2)CCCN(C(=O)c2ccc(OC)o2)C1 (centres undefined)	inconclusive: 18.3 µM [activator, partial curve]	–
